In all, about 310,000 compounds went through this assay and about 14,000 (4.5%) showed an effect of 50% or more. Effects have a minus sign here. The list shows a part of the results.
Each molecule was assayed against human ether-à-go-go-related gene (hERG) potassium channel (human, UniProt Q12809) (assay: primary screen, population patch clamp on CHO cells stably expressing hERG).
Chain of human ether-à-go-go-related gene (hERG) potassium channel (Q12809 whole entry, looked up): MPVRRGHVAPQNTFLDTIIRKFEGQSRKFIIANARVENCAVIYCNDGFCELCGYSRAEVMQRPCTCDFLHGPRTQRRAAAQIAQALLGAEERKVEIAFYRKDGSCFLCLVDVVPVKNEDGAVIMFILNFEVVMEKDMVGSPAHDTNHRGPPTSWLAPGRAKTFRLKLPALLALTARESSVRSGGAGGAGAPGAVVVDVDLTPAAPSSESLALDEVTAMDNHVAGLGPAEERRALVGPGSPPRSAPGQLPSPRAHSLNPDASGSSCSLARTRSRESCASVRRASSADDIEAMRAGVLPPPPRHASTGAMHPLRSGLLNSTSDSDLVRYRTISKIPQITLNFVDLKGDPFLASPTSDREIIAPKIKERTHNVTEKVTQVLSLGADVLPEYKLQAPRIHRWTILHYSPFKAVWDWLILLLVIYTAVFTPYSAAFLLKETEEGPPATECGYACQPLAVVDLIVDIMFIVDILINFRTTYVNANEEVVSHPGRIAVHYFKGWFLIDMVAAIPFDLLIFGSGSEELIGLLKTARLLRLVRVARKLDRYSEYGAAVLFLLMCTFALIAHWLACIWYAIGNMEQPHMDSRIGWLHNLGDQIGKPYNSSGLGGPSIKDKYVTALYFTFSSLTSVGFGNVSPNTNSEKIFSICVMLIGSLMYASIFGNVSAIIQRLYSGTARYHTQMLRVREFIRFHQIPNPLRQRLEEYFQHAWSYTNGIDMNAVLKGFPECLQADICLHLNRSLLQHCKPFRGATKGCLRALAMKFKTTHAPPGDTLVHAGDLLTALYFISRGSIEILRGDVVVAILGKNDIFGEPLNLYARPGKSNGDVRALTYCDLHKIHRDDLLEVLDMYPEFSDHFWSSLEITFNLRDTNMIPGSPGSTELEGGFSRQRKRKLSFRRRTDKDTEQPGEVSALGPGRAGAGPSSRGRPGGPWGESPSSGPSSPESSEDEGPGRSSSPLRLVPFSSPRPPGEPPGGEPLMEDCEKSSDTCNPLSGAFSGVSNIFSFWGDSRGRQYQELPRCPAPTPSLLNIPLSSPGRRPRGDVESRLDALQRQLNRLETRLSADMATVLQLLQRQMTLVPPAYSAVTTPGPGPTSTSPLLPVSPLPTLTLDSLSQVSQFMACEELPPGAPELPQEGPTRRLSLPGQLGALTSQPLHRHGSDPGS
In the case of `COc1ccc(C2N=C(c3ccccc3)NC(c3ccccc3)=N2)cc1`, the “hERG current change (%, negative = inhibition) at 10uM” value was -9.52%.
For `O=[N+]([O-])c1cccc(S(=O)(=O)NCCc2cn3ccccc3n2)c1`, the “hERG current change (%, negative = inhibition) at 10uM” value was -10.5%.
For `COc1cccc(/C=C2\Oc3cc(OCC(=O)N4CCCC4)ccc3C2=O)c1OC`, the “hERG current change (%, negative = inhibition) at 10uM” value was -6.48%.
With `NC(=O)CC(NC(=O)c1cccc(Br)c1)c1ccc(N2CCC(N3CCCCC3)CC2)c([N+](=O)[O-])c1` (centres unmarked) the “hERG current change (%, negative = inhibition) at 10uM” value was 7.64%.
`COc1cccc(Cn2cccc(NC(=O)Nc3ccccc3C)c2=O)c1` was tested, and the “hERG current change (%, negative = inhibition) at 10uM” value was 14.4%.
In the case of `CCOC(=O)c1sc(NC(=O)CSc2nnc(C(C)C)n2C)nc1C`, the “hERG current change (%, negative = inhibition) at 10uM” value was -12.2%.
For `O=C1C(=O)c2ccc(-c3ccccc3)cc2-c2ccccc21`, the “hERG current change (%, negative = inhibition) at 10uM” value was 19.9%.
In the case of `Cc1cccc(-n2c(CNC(=O)COc3ccccc3)nnc2SCC(=O)Nc2nccs2)c1`, the “hERG current change (%, negative = inhibition) at 10uM” value was -13.6%.
For `Cc1cccc(NC(=O)C2C3CCCCC32)c1` (centres unmarked), the “hERG current change (%, negative = inhibition) at 10uM” value was 23%.
For `O=C(CSc1ncccn1)NCc1ccc2c(c1)OCO2`, the “hERG current change (%, negative = inhibition) at 10uM” value was 11.9%.
With `CC(/C=N/N1CCN(c2ccccn2)CC1)=C\c1ccccc1` the “hERG current change (%, negative = inhibition) at 10uM” value was -1.63%.
In the case of `COc1ccc(O)c(/C=N/NC(=S)Nc2cccnc2)c1`, the “hERG current change (%, negative = inhibition) at 10uM” value was 25.1%.
In the case of `COc1ccc(N2CC(C(=O)N[C@H](C(=O)NC(C)c3ccccc3)C(C)C)CC2=O)cc1` (some centres unmarked), the “hERG current change (%, negative = inhibition) at 10uM” value was 11.2%.
With `Cn1c(NC(=O)c2cccnc2)nc2ccccc21` the “hERG current change (%, negative = inhibition) at 10uM” value was 12.6%.
`CCC(C)(C)C1CCc2[nH]nc(C(=O)NCc3ccc(Cl)cc3)c2C1` (centres unmarked) was tested, and the “hERG current change (%, negative = inhibition) at 10uM” value was 20.5%.
`CC(C)(C)C(O)(CC#CCN1CCCC1)c1ccccc1.Cl` (centres unmarked) was tested, and the “hERG current change (%, negative = inhibition) at 10uM” value was 24.5%.
With `Cn1nccc1C(=O)N(CCN1CCCCC1)CC1CCCN(C2CCCC2)C1` (centres unmarked) the “hERG current change (%, negative = inhibition) at 10uM” value was -2.29%.
In the case of `CCCc1ccc(C(=O)CCC(=O)NNC(=O)c2ccncc2)cc1`, the “hERG current change (%, negative = inhibition) at 10uM” value was -24.3%.
For `COc1ccc(N(C(=O)c2ccco2)C(C(=O)NC2CCCC2)c2cccs2)cc1OC` (centres unmarked), the “hERG current change (%, negative = inhibition) at 10uM” value was 1.89%.
`CCOC(=O)c1sc2nccc(OC)c2c1N=CNOC` was tested, and the “hERG current change (%, negative = inhibition) at 10uM” value was -24%.
With `O=C(Nc1ccc(O)c(-c2nc3ccccc3s2)c1)c1cccs1` the “hERG current change (%, negative = inhibition) at 10uM” value was -9.79%.
With `Cc1ccc(C(=O)N2CCN(c3cccc(C)c3C)CC2)o1` the “hERG current change (%, negative = inhibition) at 10uM” value was -20.4%.
With `Cc1nc(NCCNC(=O)c2ccco2)c2c(C)c(C)sc2n1` the “hERG current change (%, negative = inhibition) at 10uM” value was 4.95%.
With `CC(C)(C)C(=O)Nc1cc(C(F)(F)F)ccc1-n1ccnc1` the “hERG current change (%, negative = inhibition) at 10uM” value was 17.6%.
With `O=C1OCCC/C1=C\c1ccc2c(c1)OCO2` the “hERG current change (%, negative = inhibition) at 10uM” value was 16.8%.
For `COc1ccc(CC(=O)OCC(=O)N(CC(C)C)c2c(N)n(Cc3ccccc3)c(=O)[nH]c2=O)cc1`, the “hERG current change (%, negative = inhibition) at 10uM” value was 8.52%.
`Cc1cccc(NC(=O)c2cc(-c3cc(Cl)ccc3O)n[nH]2)c1` was tested, and the “hERG current change (%, negative = inhibition) at 10uM” value was 18.2%.
In the case of `CCC(C)NC(=O)CCCCCn1c(=O)[nH]c2cc(OC)c(OC)cc2c1=O` (centres unmarked), the “hERG current change (%, negative = inhibition) at 10uM” value was -9.93%.
In the case of `CCCCC(=O)NC1(C(F)(F)F)C(=O)N(Cc2ccco2)C(C)=C1C(=O)OC` (centres unmarked), the “hERG current change (%, negative = inhibition) at 10uM” value was 8.89%.
For `O=C1C2CC=CCC2C(=O)N1n1cnnc1` (centres unmarked), the “hERG current change (%, negative = inhibition) at 10uM” value was 17.4%.
`COc1ccc(CCNC(=O)Nc2cccc([N+](=O)[O-])c2)cc1` was tested, and the “hERG current change (%, negative = inhibition) at 10uM” value was 4.51%.
For `O=C(O)c1nn(Cc2ccc(Cl)cc2Cl)c2ccccc12`, the “hERG current change (%, negative = inhibition) at 10uM” value was 14.2%.
In the case of `Clc1ccc(C2=NOC(c3nnc(-c4ccccc4)o3)C2)cc1` (centres unmarked), the “hERG current change (%, negative = inhibition) at 10uM” value was 15.5%.
In the case of `O=C(O)CCN1C(=O)c2ccc(NC(=O)c3ccco3)cc2C1=O`, the “hERG current change (%, negative = inhibition) at 10uM” value was 18%.
With `Cc1ccc(S(=O)(=O)Nc2ccc(N3CCOCC3)cc2)cc1[N+](=O)[O-]` the “hERG current change (%, negative = inhibition) at 10uM” value was -23.9%.
In the case of `O=C(Nc1ccccn1)c1ccc2c(c1)S(=O)(=O)c1ccccc1C2=O`, the “hERG current change (%, negative = inhibition) at 10uM” value was 6.46%.
With `Cc1ccc(/C=C2\S/C(=N/S(=O)(=O)c3cccs3)NC2=O)cc1` the “hERG current change (%, negative = inhibition) at 10uM” value was -1.37%.
In the case of `CC1=CCC2C(=O)N(c3ccc(OC(=O)c4ccco4)cc3)C(=O)C2C1` (centres unmarked), the “hERG current change (%, negative = inhibition) at 10uM” value was 12%.
With `COc1cc2cc(CCCOC(=O)CCC(=O)O)oc(=O)c2cc1OC` the “hERG current change (%, negative = inhibition) at 10uM” value was 14.4%.
In the case of `COCCc1ncc(CN2CCCCC2C(=O)Nc2ccc(Oc3ccccc3)nc2)cn1` (centres unmarked), the “hERG current change (%, negative = inhibition) at 10uM” value was -8.69%.
For `S=c1[nH]c2cc3c(cc2[nH]1)OCCO3`, the “hERG current change (%, negative = inhibition) at 10uM” value was 16.9%.
With `COc1ccc(CCNC(=O)CSc2nc(N)cc(=O)[nH]2)cc1OC` the “hERG current change (%, negative = inhibition) at 10uM” value was 29.6%.
In the case of `CCN(CC)S(=O)(=O)c1ccc(N2CCOCC2)c(NC(=O)COc2ccccc2)c1`, the “hERG current change (%, negative = inhibition) at 10uM” value was -11.1%.
`C[C@H](Nc1ncnc2sc3c(c12)CCC3)C(=O)O` was tested, and the “hERG current change (%, negative = inhibition) at 10uM” value was 16.1%.
`CCN(CC)C(=O)n1c(Cc2ccccc2)nc2ccccc21` was tested, and the “hERG current change (%, negative = inhibition) at 10uM” value was -1.1%.
In the case of `COC(=O)C1=C(C)NC(=O)/C1=C\c1cc(C)n(-c2c(C)cccc2C)c1C`, the “hERG current change (%, negative = inhibition) at 10uM” value was -22.9%.
`C#CCNC(=O)C1=C[C@H](c2ccc3c(c2)OCO3)C[C@H](OCCCCO)O1` was tested, and the “hERG current change (%, negative = inhibition) at 10uM” value was -0.756%.
With `CC(NC(=O)C(=O)NCC1CCCO1)c1ccccc1` (centres unmarked) the “hERG current change (%, negative = inhibition) at 10uM” value was 13.7%.
For `COC(=O)C(CC(C)C)NC(=O)/C=C/c1ccc(Cl)cc1` (centres unmarked), the “hERG current change (%, negative = inhibition) at 10uM” value was -5.29%.
With `CN1CCN(c2ccc(Cl)cc2N)CC1` the “hERG current change (%, negative = inhibition) at 10uM” value was -5.58%.
In the case of `COc1ccc(CN2CCCC(C(=O)c3ccc4c(c3)OCO4)C2)c(F)c1` (centres unmarked), the “hERG current change (%, negative = inhibition) at 10uM” value was -64.2%.
In the case of `COc1ccc(OC)c(-n2nnnc2SCC(=O)Nc2ccccc2OC)c1`, the “hERG current change (%, negative = inhibition) at 10uM” value was 7.8%.
For `O=c1c2ccccc2nc(CNCc2ccco2)n1-c1ccc(F)cc1`, the “hERG current change (%, negative = inhibition) at 10uM” value was -17.5%.
In the case of `CCOc1ccc(NC(=O)CN(C)C(=O)c2ccc(C3SCCS3)cc2)cc1OCC`, the “hERG current change (%, negative = inhibition) at 10uM” value was -0.427%.
For `N=c1c(C(=O)NC2CCCCC2)cc2c(=O)n3ccccc3nc2n1CC1CCCO1` (centres unmarked), the “hERG current change (%, negative = inhibition) at 10uM” value was -74.9%.
For `COc1ccc(CNC(=O)CSc2nnc3c(n2)[nH]c2ccc(F)cc23)cc1`, the “hERG current change (%, negative = inhibition) at 10uM” value was 7.99%.
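Note: peak tail current of the secondary pulse compared with the same well before compound.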
